The supplement of paper PMC8728848
This is one part of the list.

Tests used:
Test in all cases: glycan array binding signal (z-score within array); higher = stronger binding
Conditions in all cases: glycan notation: IUPAC condensed, linker removed; mutation: Y228W
[1] = target: Fuc(a1-2)Gal(b1-4)GlcNAc(b1-3)Gal(b1-4)GlcNAc(b1-2)Man(a1-3)[Fuc(a1-2)Gal(b1-4)GlcNAc(b1-3)Gal(b1-4)GlcNAc(b1-2)Man(a1-6)]Man(b1-4)GlcNAc(b1-4)GlcNAc
How it was run: (§1)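 The binding signal is a Z-score computed within each array and averaged over linkers. Arrays of the same protein sequence at different concentrations or buffers were also averaged together. Data originate from 3228 arrays in the Consortium for Functional Glycomics database, kept only where the protein sequence was available.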

[2] = target: Fuc(a1-2)Gal(b1-4)GlcNAc(b1-3)Gal(b1-4)GlcNAc(b1-3)Gal(b1-4)GlcNAc
How it was run: as §1

[3] = target: Fuc(a1-2)Gal(b1-4)GlcNAc(b1-3)GalNAc
How it was run: as §1

[4] = target: Fuc(a1-2)Gal(b1-4)GlcNAc(b1-3)[Fuc(a1-2)Gal(b1-4)GlcNAc(b1-6)]GalNAc
How it was run: as §1

[5] = target: Fuc(a1-2)Gal(b1-4)GlcNAc(b1-3)[Fuc(a1-3)[Gal(b1-4)]GlcNAc(b1-6)]Gal(b1-4)Glc
How it was run: as §1

[6] = target: Fuc(a1-2)Gal(b1-4)GlcNAc(b1-6)GalNAc
How it was run: as §1

[7] = target: Fuc(a1-2)Gal(b1-4)GlcNAc6S
How it was run: as §1

[8] = target: Fuc(a1-2)Gal(b1-4)[Fuc(a1-3)]GlcNAc
How it was run: as §1

[9] = target: Fuc(a1-2)Gal(b1-4)[Fuc(a1-3)]GlcNAc(b1-2)Man(a1-3)[Fuc(a1-2)Gal(b1-4)[Fuc(a1-3)]GlcNAc(b1-2)Man(a1-6)]Man(b1-4)GlcNAc(b1-4)[Fuc(a1-6)]GlcNAc
How it was run: as §1

[10] = target: Fuc(a1-2)Gal(b1-4)[Fuc(a1-3)]GlcNAc(b1-2)[Fuc(a1-2)Gal(b1-4)[Fuc(a1-3)]GlcNAc(b1-4)]Man(a1-3)[Fuc(a1-2)Gal(b1-4)[Fuc(a1-3)]GlcNAc(b1-2)Man(a1-6)]Man(b1-4)GlcNAc(b1-4)GlcNAc
How it was run: as §1

[11] = target: Fuc(a1-2)Gal(b1-4)[Fuc(a1-3)]GlcNAc(b1-3)Gal(b1-4)[Fuc(a1-3)]GlcNAc
How it was run: as §1

[12] = target: Fuc(a1-2)Gal(b1-4)[Fuc(a1-3)]GlcNAc(b1-3)Gal(b1-4)[Fuc(a1-3)]GlcNAc(b1-3)Gal(b1-4)[Fuc(a1-3)]GlcNAc
How it was run: as §1

[13] = target: Fuc(a1-2)Gal(b1-4)[Fuc(a1-3)]GlcNAc(b1-3)GalNAc
How it was run: as §1

[14] = target: Fuc(a1-2)Gal(b1-4)[Fuc(a1-3)]GlcNAc(b1-3)[Neu5Ac(a2-6)Gal(b1-4)GlcNAc(b1-6)]Gal(b1-4)Glc
How it was run: as §1

[15] = target: Fuc(a1-2)Gal3S(b1-4)GlcNAc
How it was run: as §1

[16] = target: Fuc(a1-2)Gal6S(b1-3)GlcNAc
How it was run: as §1

[17] = target: Fuc(a1-2)Gal6S(b1-3)GlcNAc6S
How it was run: as §1

Fuc(a1-2)Gal6S(b1-4)Glc = target: Fuc(a1-2)Gal6S(b1-4)Glc
How it was run: as §1

[18] = target: Fuc(a1-2)Gal6S(b1-4)Glc6S
How it was run: as §1

Fuc(a1-2)[Gal(a1-3)]Gal = target: Fuc(a1-2)[Gal(a1-3)]Gal
How it was run: as §1

[19] = target: Fuc(a1-2)[Gal(a1-3)]Gal(b1-3)GalNAc
How it was run: as §1

[20] = target: Fuc(a1-2)[Gal(a1-3)]Gal(b1-3)GalNAc(b1-3)Gal(a1-4)Gal(b1-4)Glc
How it was run: as §1

[21] = target: Fuc(a1-2)[Gal(a1-3)]Gal(b1-3)GlcNAc
How it was run: as §1

[22] = target: Fuc(a1-2)[Gal(a1-3)]Gal(b1-3)GlcNAc(b1-2)Man(a1-3)[Fuc(a1-2)[Gal(a1-3)]Gal(b1-3)GlcNAc(b1-2)Man(a1-6)]Man(b1-4)GlcNAc(b1-4)GlcNAc
How it was run: as §1

[23] = target: Fuc(a1-2)[Gal(a1-3)]Gal(b1-3)GlcNAc(b1-2)Man(a1-3)[Fuc(a1-2)[Gal(a1-3)]Gal(b1-3)GlcNAc(b1-2)Man(a1-6)]Man(b1-4)GlcNAc(b1-4)[Fuc(a1-6)]GlcNAc
How it was run: as §1

[24] = target: Fuc(a1-2)[Gal(a1-3)]Gal(b1-3)GlcNAc(b1-3)GalNAc
How it was run: as §1

[25] = target: Fuc(a1-2)[Gal(a1-3)]Gal(b1-3)GlcNAc(b1-6)GalNAc
How it was run: as §1

[26] = target: Fuc(a1-2)[Gal(a1-3)]Gal(b1-4)Glc
How it was run: as §1

[27] = target: Fuc(a1-2)[Gal(a1-3)]Gal(b1-4)GlcNAc
How it was run: as §1

[28] = target: Fuc(a1-2)[Gal(a1-3)]Gal(b1-4)GlcNAc(b1-2)Man
How it was run: as §1

B1: Epa1-NP-mutant-Y228W (Candida glabrata), Q6VBJ0 (protein)
chain: MILNPALFLNKCVCIYTTLILLLLTNGGYATSSNDISLASKDPTTFPLGCSPDITTPKKGLSMELYSYDFRKKGSYPCWDAAYLDPNYPRTGYKSHRLLAKVDGVTGNINFYYHATKGCTPQLGHLPASYNYPKPLTMTNFTMLLYGYFRPKVTGFHTFTISADDLLFVNFGAGNAFDCCRRDSSADHFGNYQAYAIWGSKTAKDELTVHLDAGVYYPIRLFYNNREWDGALSFTFKTESNENTVSDFSEYFFSLDDTEEGCPGLISYDSSCASVKTSKIIGIDYHTETPNENLVPITKTIYHLGIPCTGTTTTPLCGSGFYDPLANKCVTINTSSTSSVTKTTSHTTSKEVSFHSSISSQKTLIPKSIPSPYGPIKSQSIPTEMETSSEISSSEYAFSDVISTPSHSPYTKKHSSLNSSSYTSTVIHSLTSYSISQGIFSTSLSEQNITSKSSTDKFSTATSMSNNITQSSIIISQFSTNNENYTTTSMHTSSDKISTETLNNSISTTTSILFSNSSTILKNNTTIISSDKDTHYHPVNPTIVCSTNKTEIICASITQPSISNSNNHWSSSVLKFNSTTVRSTLPSSAGSNETSINVPFSSSTESNTSTSSTSTSNSKMVRSTLPSSAGSNETSISVPFSSSTESNTSTSSTSTSNSKMVRSTLPSSAGSNETSINVPFSSSTESNTSTSSTSTSNSKTVRSTPFSSAGIIMTSLSQRNNKSASSYASSNSKCYNTADSCRKVHSTPSYLLTSSYTSEGVDYDCSLVSTKLKINDTNCVNNKHTTKSCLKTSVTTTIPTLEIKTARKSSSNTIGLHSYPTSSPNKSISSAPIIGYISSFKTIKTASPSYQTSDLTTITTITSLNNPGSTAVENTHESNDKSRKTSSNDISSKHSVIKETKDAVESSNKSHQTNTLKCSSIIIASSSHNSYESLGGTTLTLTLSKVYSPQNNDTLPFLEISEVNPSRTVLPESSKMMQYLTSTEERNKTARNTIATNIVSISTFHFEGEGNAIRMGYTQLLLMLIGIIVMNIGT
[1]
  glycan array binding signal (z-score): 0.051
[2]
  glycan array binding signal (z-score): 0.005
[3]
  glycan array binding signal (z-score): -0.013
[4]
  glycan array binding signal (z-score): -0.259
[5]
  glycan array binding signal (z-score): -0.169
[6]
  glycan array binding signal (z-score): 0.006
[7]
  glycan array binding signal (z-score): -0.4
[8]
  glycan array binding signal (z-score): -0.334
[9]
  glycan array binding signal (z-score): -0.013
[10]
  glycan array binding signal (z-score): -0.115
[11]
  glycan array binding signal (z-score): -0.202
[12]
  glycan array binding signal (z-score): -0.295
[13]
  glycan array binding signal (z-score): -0.204
[14]
  glycan array binding signal (z-score): -0.026
[15]
  glycan array binding signal (z-score): -0.25
[16]
  glycan array binding signal (z-score): -0.297
[17]
  glycan array binding signal (z-score): -0.1
Fuc(a1-2)Gal6S(b1-4)Glc
  glycan array binding signal (z-score): -0.117
[18]
  glycan array binding signal (z-score): -0.424
Fuc(a1-2)[Gal(a1-3)]Gal
  glycan array binding signal (z-score): -0.19
[19]
  glycan array binding signal (z-score): 0.002
[20]
  glycan array binding signal (z-score): -0.266
[21]
  glycan array binding signal (z-score): -0.249
[22]
  glycan array binding signal (z-score): -0.211
[23]
  glycan array binding signal (z-score): -0.269
[24]
  glycan array binding signal (z-score): -0.019
[25]
  glycan array binding signal (z-score): -0.368
[26]
  glycan array binding signal (z-score): -0.105
[27]
  glycan array binding signal (z-score): -0.39
[28]
  glycan array binding signal (z-score): -0.304
